Experimental data published in PubChem BioAssay AID624296 (National Center for Advancing Translational Sciences (NCATS), 2012).
“And” between values parts separate entries of the source, which are not always exact repeats. Identical values can stand only once. In all, about 350,000 compounds went through this assay and about 9,900 (2.8%) were called active. Inconclusive means that the source gave no clear call. Such entries were picked first, then a sample of the others. Calls follow the shape of the dose curve; as a rule, active = well fitted activation curve with a large enough effect; inconclusive = small, poorly fitted or top-dose-only effect; inactive = no such curve, though single readings can be large or run the other way. Where the call is inconclusive, the potency comes from a doubtful curve fit.

assay: A quantitative high throughput screen for small molecules that induce DNA re-replication in MCF 10a normal breast cells.; also: nearly all actives have a fitted effect of over 50% in size; settings: MCF 10A DNA re-replication, Hoechst nuclear intensity, 48 h; series mostly up to 46.1 µM
Potency is read from the fitted curve at half-maximal effect; tags tell the direction and shape of the fitted curve.

Structure (SMILES)	Potency
Cc1ccc(NC(=O)COC(=O)C2CCC2)cc1S(=O)(=O)N1CCCCC1	inactive
CCCOc1ccc(-c2nc(C#N)c(N3CCC(C(N)=O)CC3)o2)cc1	inconclusive: 29.1 µM [activator, single point]
Oc1ccc(O)c(-c2cnns2)c1	inconclusive: 29.1 µM [activator, single point]
Cc1nn(C(C)(C)C)c(OC(=O)c2ccc(Br)o2)c1Sc1ccccc1	inconclusive: 23.1 µM [activator, single point]
COc1cccc(Nc2nc(N)nc(-c3oc4ccccc4c3C)n2)c1	active: 7.31 µM
O=C(Nc1ccccc1)C1=C[C@H](c2ccc(Br)cc2)C[C@H](OCc2ccc(CO)cc2)O1	inconclusive: 29.1 µM [activator, single point]
COc1cccc(-c2nc(N3CCCCC3)c3ccccc3n2)c1O	inconclusive: 29.1 µM [activator, single point]
CCCCOc1ccc(C(=O)Nc2ccc3c(c2)OCO3)cc1	inconclusive: 18.4 µM [activator, single point]
CCN1CCN(S(=O)(=O)c2ccc(Cl)c(C(=O)NC3CC3)c2)CC1	inactive
COc1ccccc1NC(=O)CSc1nc2nc(C)cc(C)c2c(=O)[nH]1	inconclusive: 2.59 µM [activator, partial curve, poor fit]
CCN(CC(=O)NCc1ccc(F)cc1)C(=O)C1CCN(S(=O)(=O)c2ccc(C(C)C)cc2)CC1	inactive
O=C(Nc1ccc([N+](=O)[O-])cc1Cl)c1cc(Cl)ccc1O	inconclusive: 197 nM [activator, full curve, poor fit] and inconclusive: 299 nM [activator, single point] and inconclusive: 116 nM [activator, full curve, poor fit]
Cc1ccc(-c2nnn(CC(=O)NC3CCN(Cc4ccccc4)CC3)n2)cc1	inconclusive: 20.6 µM [activator, partial curve, poor fit]
Cc1cccc(Nc2nc(N)c([N+](=O)[O-])c(NCc3ccccc3)n2)c1	active: 18.4 µM
COc1cc(C(=O)Nc2nnc(Cc3ccccc3)s2)cc(OC)c1OC	inconclusive: 29.1 µM [activator, single point]
Nc1nonc1-c1nc2ccccc2n1CC(=O)N/N=C\c1ccc(-c2ccc(Cl)cc2)o1	active: 8.91 µM
CC(C)(C)c1ccc(-n2ncc3c2CCCC3NC(=O)CN2CCOC2=O)cc1 (stereo not given)	inactive
Cc1ccc(-c2ccnc3nc(-n4cccc4)nn23)o1	inconclusive: 23.1 µM [activator, single point]
CCN(CC)C(=O)c1cccc(NC(=O)CC23CC4CC(CC(C4)C2)C3)c1	inconclusive: 16.4 µM [activator, partial curve, poor fit]
Nc1c(C(=O)N/N=C/c2cccnc2)oc2nc(-c3ccccc3)cc(-c3ccco3)c12	active: 18.4 µM
S=C(Nc1ccccc1)N1CCN(c2ccccn2)CC1	inactive
O=C(Nc1ccc2c(c1)OCO2)c1ccccc1SCC(=O)N1CCCC1	inconclusive: 4.11 µM [activator, partial curve, poor fit]
Cc1ccc(S(=O)(=O)Nc2cc(C(C(=O)OC(C)C)C(=O)C(F)(F)F)c(O)c3ccccc23)c(C)c1 (stereo not given)	inconclusive: 16.4 µM [activator, partial curve, poor fit]
O=c1c2c3nc4ccccc4nc3n(CCN3CCOCC3)c2ncn1CCN1CCOCC1	inactive

Structure (SMILES)	Potency
O=[N+]([O-])c1ccc(-c2ccc(/C=N/O)o2)cc1	inactive
CC(=O)c1ccc2noc(-c3ccc(C)cc3)c2c1	inconclusive: 0.92 µM [activator, single point]
O=C(Nc1ccc(S(=O)(=O)N2CCCCC2)cc1)c1ccc(CN2CCOCC2)cc1	inconclusive: 6.51 µM [activator, single point]
S=c1[nH]c(-c2ccccc2)cn1/N=C/c1cccnc1	inactive
CC1(C)C=Cc2c(ccc3c2OC[C@@H](c2ccc(O)cc2O)C3)O1	inconclusive: 0.184 µM [activator, partial curve, poor fit]
Cc1cc(C)c(-n2c(C)cc(/C=C3/NC(=O)NC3=O)c2C)c(C)c1	inconclusive: 7.31 µM [activator, single point]
Cc1nc(N2CCC(C)CC2)c2c(C)c(C(=O)Nc3ccccc3C(F)(F)F)sc2n1	active: 9.2 µM
Cn1cc(/C=N/NC(=O)c2ccccc2O)c2ccccc21	inactive
CCCOc1ccc(-c2cc(C(F)(F)F)c(C#N)c(SCC(=O)O)n2)cc1	inconclusive: 25.1 µM [activator, single point]
Cc1cc(Cl)c(S(=O)(=O)N2CCSCC2)cc1OCC(=O)NC1CCCCC1	inconclusive: 29.1 µM [activator, single point]
OC(COc1ccc2ccccc2c1)Cn1ccnc1 (stereo not given)	inconclusive: 20.6 µM [activator, single point]
COc1ccc(NC(=O)c2ccc3c(c2)C(=O)N(CC2CCCO2)C3=O)cc1O (stereo not given)	inconclusive: 29.1 µM [activator, single point]
CCc1ccc(OCC(=O)Nc2ccc(-c3cc4ccccc4oc3=O)c(OC)c2)cc1	inactive
Cc1ccc(C)c(N2CCN(C(=O)c3cc4sccc4n3C)CC2)c1	inconclusive: 29.1 µM [activator, single point]
CC(C)(C)c1ccc(-c2nnc3sc(-c4ccccn4)nn23)cc1	inconclusive: 16.4 µM [activator, single point]
CCCC(c1nnnn1C(C)(C)C)N1CCN(c2ccccc2)CC1 (stereo not given)	inactive
CCOC(=O)c1c(-c2ccc(-c3ccccc3)cc2)csc1NC(=O)c1cccc(N2C(=O)CCC2=O)c1	inactive
Cc1cc(Br)ccc1OCC(=O)NNC(=O)c1cnccn1	inactive
O=C1C(Cc2ccccc2)Nc2ncnc(N3CCc4ccccc4C3)c2N1Cc1ccc(Cl)cc1 (stereo not given)	active: 23.1 µM
N#CC(C#N)=Cc1cc2ccccc2nc1N1CCOCC1	inconclusive: 29.1 µM [activator, single point]
CCCCn1[nH]c(-c2ccccc2)cc1=O	inconclusive: 25.9 µM [activator, single point]
N=c1c(C(=O)NCc2ccc(F)cc2)cc2c(=O)n3ccccc3nc2n1Cc1ccco1	active: 6.51 µM
CCOc1ccccc1NC(=S)N1CCN(c2ccccc2F)CC1	inactive
COc1ccc(S(=O)(=O)NCCC(=O)Nc2ccc(C)cc2)cc1	inactive

Structure (SMILES)	Potency
COc1ccc(NS(=O)(=O)c2ccc(N3CCOCC3)c(NC(=O)c3ccccc3Cl)c2)cc1	inconclusive: 9.2 µM [activator, partial curve, poor fit]
O=C(O)c1ccc(-c2ccc(/C=N/Nc3ccc([N+](=O)[O-])cc3)o2)cc1	active: 18.4 µM
CC(=O)Nc1ccc(NS(=O)(=O)c2ccccc2)cc1	inactive
O=C(NCC1OCCc2ccccc21)c1ccc(NC(=O)c2cccc(Br)c2)cc1 (stereo not given)	inconclusive: 0.731 µM [activator, full curve, poor fit]
CCN(CC)S(=O)(=O)c1cccc(NC(=O)C2SC(=Nc3ccc(C)cc3C)C(C(=O)NC(C)COC)=C2N)c1 (stereo not given)	inconclusive: 13 µM [activator, partial curve, poor fit]
Cc1ccc(O)c(C(=O)c2cnn(C(=O)Cc3csc(C)n3)c2)c1	inconclusive: 20.6 µM [activator, single point]
c1ccc2oc(C3=NNC(=NC4CC4)SC3)cc2c1	active: 11.6 µM
CCOc1ccc(NS(=O)(=O)c2ccc(C)c(C(=O)NCCCn3ccnc3)c2)cc1	inconclusive: 16.4 µM [activator, partial curve]
COc1cc(OC)c(/C=N/n2c(C)nnc2C)c(OC)c1	active: 25.9 µM
O=C(CN1CCOCC1)Nc1c2c(nc3ccccc13)N(Cc1ccccc1)CC2	inactive
CCOc1ccc(CCNC(=O)c2cc(-c3ccccc3)c(N3CCOCC3)s2)cc1	inactive
COc1ccc(/C=C/C(=O)c2ccc3c(c2)OCO3)cc1OC	inconclusive: 20.6 µM [activator, partial curve, poor fit]
Cc1nnc2sc(-c3csc4c3CCCC4)nn12	inconclusive: 14.6 µM [activator, partial curve, poor fit]
COc1ccc(NC(=S)Nc2ccc(OC)cc2OC)c(OC)c1	inactive
Cc1ccc(C(C(=O)NC2CCCC2)N(C(=O)Cc2cccs2)c2cccc(C)c2C)o1 (stereo not given)	inconclusive: 0.291 µM [activator, full curve, poor fit]
O=C(O)C1=CC[C@@H](c2ccc(Cl)cc2)N(S(=O)(=O)c2ccc(Cl)cc2)[C@H]1c1ccccc1	inactive
CCOC(=O)C1=C(C)NC(=O)NC1c1cn(-c2ccccc2)nc1-c1cccs1 (stereo not given)	inconclusive: 18.4 µM [activator, partial curve, poor fit]
CNC(=S)N1CCn2cccc2C1c1ccc(F)cc1 (stereo not given)	inactive
Cc1cccc(CS(=O)(=O)c2ncc(CO)n2C)c1	inactive
Cc1nc2c(sc(=S)n2Cc2ccco2)c(=O)n1CC(=O)Nc1ccccc1Cl	inconclusive: 23.1 µM [activator, single point]
CCCN1C(=O)C(O)(C2CC(=O)CC(C)(C)O2)c2ccccc21 (stereo not given)	inconclusive: 29.1 µM [activator, single point]
CCOC(=O)C1=C(COc2ccccc2)NC(=O)NC1c1ccc(Br)cc1 (stereo not given)	inactive
